Values marked as one replicate rest on one cluster of the flow cell; about a third of the high ones do not repeat.
Tested on: ATP
Assay: switch fluorescence ratio, 500 uM ATP over buffer (Cy3 cluster intensity, sum of 5 cycles each) (fold (ratio)); higher = stronger signal-on switching upon ATP binding; sequences stand for … in TCGTCGGCAGCGTCAGATGTGTATAAGAGACAGTTTTTTTTTTTTTTTTTTTTTTTTT…TC
Details: aptamer strand: ATP DNA aptamer (quencher-CACCTGGGGGAGTATTGCGGAGGAAGG + anchor), 100 nM annealed; ATP concentration: 500 uM; one replicate
In short: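 Between each of five buffer/ATP cycles, the flow-cell was stripped with NaOH and re-annealed. Each cycle imaged Cy3-labelled switching-strand clusters, annealed to 100 nM quencher-labelled ATP aptamer on a modified Illumina MiSeq flow-cell, first in selection buffer and then after 15 min with 500 uM ATP at 22 °C. The fluorescence ratio is summed target-cycle over summed buffer-cycle Cy3 intensity per cluster, averaged per switch-domain sequence, with clusters outside 100-1000 RFU excluded.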
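Further: ATP exposure 15 min at 22 °C before imaging.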

| Sequence | switch fluorescence ratio |
| --- | --- |
| CAGCTAACTG | 0.971 |
| CAGCTGTCGA | 1.03 |
| CAGGAAACGC | 1.09 |
| CAGGAAGTGG | 0.949 |
| CAGGACATGG | 0.924 |
| CAGGACTACT | 1.05 |
| CAGGAGCACG | 1.08 |
| CAGGAGCCTT | 1.05 |
| CAGGAGCGTC | 1.48 |
| CAGGAGTACG | 0.949 |
| CAGGATATCG | 0.986 |
| CAGGATGCTC | 1 |
| CAGGCAAACC | 1.09 |
| CAGGCCAAAT | 1.28 |
| CAGGCCGCTC | 1.08 |
| CAGGCGCGTT | 1 |
| CAGGCTGCA | 1.01 |
| CAGGCTTGGG | 1.04 |
| CAGGGCGAGC | 1.03 |
| CAGGGCGCTG | 1 |
| CAGGGCTTTA | 0.953 |
| CAGGGGAGAA | 1.04 |
| CAGGGGCAAA | 1.1 |
| CAGGGGGTGA | 1 |
| CAGGGTCCAA | 1 |

| Sequence | switch fluorescence ratio |
| --- | --- |
| CAGGGTCCCC | 0.962 |
| CAGGGTGACC | 0.998 |
| CAGGTAAGAT | 1 |
| CAGGTCAT | 0.967 |
| CAGGTCCACT | 1.02 |
| CAGGTGCAGT | 1.46 |
| CAGGTGTGTC | 1.08 |
| CAGGTGTTGT | 1.5 |
| CAGTAACCAG | 0.991 |
| CAGTACATTT | 1.04 |
| CAGTACGAAA | 1.04 |
| CAGTAGCCAG | 0.987 |
| CAGTAGGGGA | 0.974 |
| CAGTATGCGG | 1.02 |
| CAGTATGGAG | 0.952 |
| CAGTATTGCC | 0.975 |
| CAGTCCGTTG | 1.05 |
| CAGTCCTCCC | 1.49 |
| CAGTCGATAC | 5.05 |
| CAGTCGCGCC | 1.05 |
| CAGTCGTTTG | 1 |
| CAGTCTAAG | 0.976 |
| CAGTCTTAAG | 1.01 |
| CAGTGAAAGT | 0.994 |
| CAGTGGCCCC | 1.01 |

| Sequence | switch fluorescence ratio |
| --- | --- |
| CAGTGGCGGG | 1.01 |
| CAGTGGGCTG | 1.05 |
| CAGTGGTATT | 0.985 |
| CAGTGGTCAA | 1.01 |
| CAGTGGTCTG | 1.04 |
| CAGTGTAACA | 1.01 |
| CAGTGTATG | 1.01 |
| CAGTGTATGA | 1.02 |
| CAGTTATGGT | 0.99 |
| CAGTTCGAGA | 1.03 |
| CAGTTCGTC | 0.969 |
| CAGTTCTGTG | 0.942 |
| CAGTTTAGAA | 1.02 |
| CAGTTTAGTA | 0.946 |
| CAGTTTTTT | 1 |
| CATAAAATA | 0.986 |
| CATAAACGT | 1.06 |
| CATAAATCTT | 1.04 |
| CATAACACGC | 1.05 |
| CATAACGAGG | 1.02 |
| CATAACGTAT | 1.01 |
| CATAACTTAG | 1.06 |
| CATAATACTT | 1 |
| CATAATCGTT | 0.959 |
| CATAATGTTT | 0.991 |

| Sequence | switch fluorescence ratio |
| --- | --- |
| CATAATTAC | 1.03 |
| CATACAATCC | 1.08 |
| CATACACGGT | 1.06 |
| CATACCAGAG | 1.05 |
| CATACCTACT | 1.33 |
| CATACGGCTT | 1.03 |
| CATACTGATA | 1.02 |
| CATACTGATC | 1.14 |
| CATAGCAAGT | 1.77 |
| CATAGCGACG | 1.02 |
| CATAGGGCTG | 0.963 |
| CATAGGGGCT | 0.986 |
| CATAGGTGTC | 1.04 |
| CATAGTCCTG | 1.06 |
| CATAGTGAGA | 0.981 |
| CATAGTTCAG | 0.989 |
| CATATAAAAA | 0.979 |
| CATATAATGT | 1.02 |
| CATATATGAA | 1.01 |
| CATATATTA | 1.01 |
| CATATATTTA | 1.06 |
| CATATGAGCG | 1.03 |
| CATATGGT | 0.958 |
| CATATGTAGT | 0.964 |
| CATATTATCT | 0.941 |
